Results on 111 molecules are retold here after PubChem BioAssay AID488969 (Vanderbilt High Throughput Screening Facility, 2010).

Over roughly 110,000 compounds, “z-score” has its median near -0.1; the highest 2% begin near 2. The list shows a part of the results. Activity calls are given as the source filed them.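 How the source made its calls: active means z-score in the third read window above 3 or below -3; inactive means the rest.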

This experiment addresses Metabotropic glutamate receptor 8 (Rattus norvegicus) (UniProt P70579). In words: mGluR8 Gi/Go-coupled signaling modulation – cell-based, rat, thallium flux, HTS, primary screen (AID 488969). The settings on record: HEK293 rat mGluR8, GIRK (G protein-gated inwardly rectifying potassium channel) thallium flux, FluoZin2; at 10 µM; stronger effect = higher value; submaximal glutamate (EC20) added with thallium.
Chain of UniProt P70579 (P70579 whole entry, looked up): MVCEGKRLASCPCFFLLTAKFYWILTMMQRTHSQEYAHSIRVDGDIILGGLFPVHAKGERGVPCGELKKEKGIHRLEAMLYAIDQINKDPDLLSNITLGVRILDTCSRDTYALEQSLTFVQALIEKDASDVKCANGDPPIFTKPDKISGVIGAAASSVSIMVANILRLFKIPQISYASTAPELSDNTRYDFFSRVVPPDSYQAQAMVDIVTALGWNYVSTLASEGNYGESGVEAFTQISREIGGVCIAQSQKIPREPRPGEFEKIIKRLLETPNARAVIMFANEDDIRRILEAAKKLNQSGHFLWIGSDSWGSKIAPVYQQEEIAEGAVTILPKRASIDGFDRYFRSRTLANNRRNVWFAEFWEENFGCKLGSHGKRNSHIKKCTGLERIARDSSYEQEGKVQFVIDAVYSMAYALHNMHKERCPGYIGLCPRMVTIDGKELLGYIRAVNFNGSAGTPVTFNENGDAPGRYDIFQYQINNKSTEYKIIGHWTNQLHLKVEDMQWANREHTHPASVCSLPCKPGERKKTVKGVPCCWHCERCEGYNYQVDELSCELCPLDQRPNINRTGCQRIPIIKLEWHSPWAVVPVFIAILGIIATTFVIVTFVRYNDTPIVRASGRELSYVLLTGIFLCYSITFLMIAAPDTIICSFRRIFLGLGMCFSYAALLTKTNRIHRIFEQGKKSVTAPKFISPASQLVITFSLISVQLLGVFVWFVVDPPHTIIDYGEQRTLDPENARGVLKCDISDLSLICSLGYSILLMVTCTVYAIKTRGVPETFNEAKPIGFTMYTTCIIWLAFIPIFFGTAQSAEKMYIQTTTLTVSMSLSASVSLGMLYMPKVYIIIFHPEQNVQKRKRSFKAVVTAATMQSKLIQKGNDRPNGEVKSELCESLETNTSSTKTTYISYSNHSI
`CC(C)C(=O)Nc1nnc(SCC(=O)NCc2cccs2)s1`: the z-score was -0.825.
As for `COC(=O)c1c(NC(=O)Cn2nc(C(F)F)cc2C(F)F)sc(C)c1C`, the z-score came to 0.152.
For `CCCCCCCCCCCNC(=O)c1ccoc1C` the value was 0.0259.
As for `CN(C)c1ccc(P(=O)(OC2CCCCC2)C(O)c2cccnc2)cc1` (stereo unspecified), the figure is -0.0858; as for `CSc1nc(Oc2ccc3ccccc3c2)c2sccc2n1`, 0.0407.
`CCOc1cc(-c2nc(-c3cc(OC)c(OC)c(OC)c3)no2)cc(OCC)c1OCC` showed a z-score of 0.87.
As to `Cn1ncc(N=Cc2ccccc2)c1C(=O)Nc1cccc(Cl)c1`, the z-score is -0.106.
As for `Cc1ccccc1-c1nnc(-c2ccc(Cl)cc2)o1`, the z-score was -0.333.
Molecule `FC(F)(F)c1cccc(NC(=S)N2CCN(c3ccccc3)CC2)c1` showed a z-score of 0.0856.
As for `N#CCCn1c(C2CCCCC2)nc2ccccc21`, the figure is 0.0918.
As for `CCc1cccc(CC)c1NC(=O)c1cccc(NC(=O)c2ccccc2)c1`, the figure is -0.107; as for `CC(C)CCC(C)N=Cc1c(O)n(Cc2ccccc2)c(=O)c2ccccc12` (stereo unspecified), -0.0415; as for `CCC(=O)Nc1ccc(Nc2ccccc2)cc1`, 0.0667.
For `CN(/C=C/C(=O)C(F)(F)F)Cc1ccccc1` the value was -0.217.
In turn, `NS(=O)(=O)c1ccc(CCN=Cc2ccccc2O)cc1` showed a z-score of -0.17.
For `Cc1nn(C(C)C(=O)Nc2ccc(Cl)cn2)c(C)c1[N+](=O)[O-]` (stereo unspecified) the value was -0.494; for `CC(=O)Nc1ccc(NC(=O)CSc2nc3ccccc3o2)cc1`, -0.0932; for `COc1ccc(CCN/C=C2/CC(=O)NC2=O)cc1OC`, 1.42.
In the case of `O=C(O)CCC(=O)N1N=C(c2c(-c3ccccc3)c3cc(Cl)ccc3[nH]c2=O)CC1c1ccco1` (stereo unspecified), the z-score is -0.219.
`O=[N+]([O-])c1ccc(C(=S)N2CCC(Cc3ccccc3)CC2)cc1` displayed a z-score of -0.242.
As for `O=[N+]([O-])c1ccc(O)c(/C=N/Nc2nc3ccccc3[nH]2)c1`, the figure is -0.372; as for `COc1cccc(S(=O)(=O)NCc2ccc(C(=O)Nc3ccc(C)cc3)cc2)c1`, 0.241.
On to `O=c1oc2ccccc2c2c1nc(C(F)(F)F)n2-c1ccccc1`, for which the z-score was -2.48.
For `CCN1C(=O)c2ccccc2S(=O)(=O)c2ccc(C(=O)NCc3cccnc3)cc21` the value was -0.157.
For the molecule `Cc1cc(C)c(S(=O)(=O)c2c(C)cccc2C)c(Cl)n1`, the z-score was determined as 0.0429.
For `CCOC(=O)C1=C(N)N2C(=O)C(C)SC2=C(C(=O)OCC)C1c1ccccc1` (stereo unspecified) the value was -0.331; for `Oc1ccc(C(=S)N2CCCCC2)cc1`, -0.146.
With `CC(C)c1c(O)cc(-c2ccncc2)n(-c2ccc(Cl)cc2)c1=O`, the z-score was 0.724.
As for `FC(F)(F)c1ccc(N2CCN(c3ncnc4c3nnn4Cc3ccccc3)CC2)nc1`, the figure is -0.129.
For `Cc1cc(NC(=O)c2c(-c3ccccc3Cl)noc2C)no1` the value was 0.878.
For `COc1ccc(CCN2C(=O)C3C4C=CC(C3C2=O)C2C(=O)N(CCc3ccc(OC)c(OC)c3)C(=O)C42)cc1OC` (stereo unspecified) the value was -0.192.
Take `CCc1nnc(SCC(=O)NC2CCCC2)nc1CC`: the z-score was -0.417.
Take `CCCC(=O)N1CC(=O)Nc2ccc(F)cc2C1c1ccccc1` (stereo unspecified): the z-score was -0.534.
As for `COc1ccc(CNc2nc(SCC(=O)NCc3ccco3)nc3ccccc23)cc1`, the figure is -0.121; as for `O=C(Cn1cc(C(F)(F)F)ccc1=O)N/N=C/c1ccc(Cl)c(Cl)c1`, -0.189.
As for `COc1ccc2cc(C(=O)NC3CCCCC3)c(=O)oc2c1`, the figure is 1.24; as for `COc1ccc(CNC(=O)[C@H](C)NC(=O)C2CCN(S(=O)(=O)c3ccc(C)cc3)CC2)cc1`, -0.431; as for `O=C(Cn1nnc(-c2cccs2)n1)N1c2ccccc2Sc2ccc(C(F)(F)F)cc21`, -0.347.
For `Cc1cc(C)n2nc(-c3sccc3-n3c(C)ccc3C)cc2n1` the value was -0.413; for `COC(=O)c1cccc(NS(=O)(=O)c2cccs2)c1C`, -0.213; for `CSc1ncc(Cl)c(C(=O)Nc2cccc(C)c2)n1`, -0.278.
As to `CCCc1cc(NCCCCO)n2c(nc3ccccc32)c1C#N`, the z-score was determined as 0.879.
As for `O=C(NC1=NC2CCCCC2N1)c1ccccc1` (stereo unspecified), the figure is 0.389.
As for `Cc1ccc(N(C(=O)CCl)C(C(=O)NC2CCCCC2)c2cccnc2)cc1C` (stereo unspecified), the z-score was -0.0597.
As to `CCN(CC)S(=O)(=O)c1cc(C(=O)OCC(=O)c2ccc3c(c2)NC(=O)CO3)ccc1Cl`, the z-score is -0.129.
For `CCOc1ccc(N2C(=O)CC(N3CCN(C4CCc5ccccc5C4)CC3)C2=O)cc1` (stereo unspecified) the value was -1.05.
As for `O=C(O)CCNC(=O)c1cncc(Br)c1`, the figure is -0.427.
As for `O=C(NCc1ccco1)C(c1cccs1)N(Cc1ccccc1)C(=O)Cn1nnc2ccccc21` (stereo unspecified), the figure is -0.301; as for `CNC(=O)CN(c1cccc(Br)c1)S(C)(=O)=O`, 0.216; as for `CN(C)S(=O)(=O)c1cc(C(=O)NCCCn2ccc3ccccc32)ccc1Cl`, -0.037.
As to `CCOC(=O)c1ccc(N2C(=O)c3n[nH]c(C)c3C2c2ccc(O)cc2)cc1` (stereo unspecified), the z-score stood at 0.303.
On to `COc1ccc(S(=O)(=O)N(C)c2ccc(OCC(=O)Nc3cc(C)on3)cc2)cc1`, for which the z-score was -0.798.
As for `O=C(CSc1nnc(-c2ccccc2F)n1C1CC1)Nc1cccnc1Cl`, the figure is -0.434.
For `Cn1cccc1CNC1CCCC1` the value was -1.43; for `O=C(O)c1ccc(Cl)c2c1C1C=CCC1C(c1ccccn1)N2` (stereo unspecified), -0.0854.
As for `Cc1nn(CC(=O)Nc2ccc(S(=O)(=O)N(C)C)cc2)c(C)c1[N+](=O)[O-]`, the figure is -0.0283; as for `CC(C)(C)N1C(=O)c2ccc(C(=O)O)cc2C1=O`, -0.147.
`CN(C)c1ccc(C(=O)/C=C/c2ccco2)cc1`: the z-score was -0.196.
For `Fc1ccc(Cn2c(SCc3ccc(F)c(F)c3)nnc2C(F)(F)F)cc1` the value was -0.728.
`O=C1CC(=O)C(n2cncn2)C(c2cccc(Cl)c2)C1` (stereo unspecified) registered a z-score of -0.0582.
For `O=C(Nc1nnc(C23CC4CC(CC(C4)C2)C3)s1)c1ccco1` the value was -0.386.
`O=C(O)[C@H]1CCCC[C@H]1C(=O)Nc1ccc(Nc2ccccc2)cc1`: the z-score is -0.328.
For `CCCN1C(=O)C(NC(C)=O)c2ccccc21` (stereo unspecified) the value was 0.136; for `CCOC(=O)c1cnc(SCc2ccccc2)nc1N`, -0.388.
As for `CCC(=O)Nc1ccc(NC(=S)NC(=O)c2cc3ccccc3o2)cc1`, the figure is 0.638; as for `Cc1ccc(S/C(=N\S(=O)(=O)c2ccc(Cl)cc2)c2ccccc2)cc1`, -0.0761; as for `C/C(=N\O)C(C)NC(=O)c1ccccc1` (stereo unspecified), active: 3.54.
`CS(=O)(=O)N1CCN(C(=O)c2ccc(Br)s2)CC1` displayed a z-score of 0.161.
For `COc1ccc2nc(SCc3cnc(C)nc3N)[nH]c2c1` the value was 0.0366; for `COCc1nnc(NC(=O)CC(c2ccccc2)c2ccccc2)s1`, 0.479; for `COCCNC(=O)CSc1nc2ccccc2c2nc(C)nn12`, 0.864.
`COC(=O)c1oc2ccccc2c1N` gave a z-score of -0.146.
As for `Cc1cc(NS(=O)(=O)c2ccc(NC(=O)CCCOc3ccccc3)cc2)no1`, the figure is -0.435; as for `CC(=O)NC1(C(F)(F)F)C(=O)Nc2c1c(=O)[nH]c(=O)n2Cc1ccco1` (stereo unspecified), -0.0113; as for `N#Cc1ccc2ccn(CC(=O)NCc3ccccc3)c2c1`, 0.232.
As for `COCCNC(=O)C(c1cccs1)N(C(=O)Cn1nnc2ccccc21)c1ccccc1` (stereo unspecified), the figure is -0.0261; as for `NC1=NC(=O)C(Cc2cccc(Cl)c2Cl)S1` (stereo unspecified), -0.0419.
As for `CC(C)OC(=O)n1c(=S)oc2ccccc21`, the figure is -0.00387; as for `O=C(COC(=O)CSc1nnc(-c2ccc(Cl)cc2)o1)Nc1cc(Cl)cc(Cl)c1`, -0.26.
`O=C(NCc1ccc2c(c1)OCO2)C1CCCN1C(=O)Nc1ccc(F)cc1` (stereo unspecified) returned a z-score of -0.232.
As for `O=C(Nc1nnc(COc2ccccc2)s1)C1CCN(S(=O)(=O)c2ccc(Cl)cc2)CC1`, the figure is -0.122; as for `CN1CCN(c2nc3c(c(=O)[nH]c(=O)n3C)n2Cc2cccc3ccccc23)CC1`, -0.0665.
`COc1ccc(C2=C(CN(C)C)C(c3ccccc3)c3ccccc3O2)cc1` (stereo unspecified) showed a z-score of -0.52.
As for `COc1ccc(/C=N/Nc2ncc(-c3ccccc3)cn2)c(OC)c1`, the figure is -0.0479; as for `CC(C)[C@H](NC(=O)c1cccc(S(=O)(=O)N2CCOCC2)c1)C(=O)Nc1nc2ccccc2s1`, 0.522; as for `COc1ccc2c(c1OC)C(=O)N(c1cccc(C)c1)C2`, 0.217.
As for `COc1ccccc1OCc1nc(Cc2ccc(Cl)cc2)no1`, the figure is -0.142.
As for `Cc1ccc(CCNC(=O)c2ccc(CS(=O)(=O)Cc3ccccc3F)o2)cc1`, the figure is -0.498; as for `COc1cc(C(=O)NCC2CCCO2)ccc1OCc1c(C)noc1C` (stereo unspecified), 0.415.
Molecule `COc1ccc(S(=O)(=O)N2CCN(Cc3cccc(Cl)c3)CC2)cc1` gave a z-score of 0.0411.
For the molecule `Cc1cccc(Oc2ncnc(N)c2[N+](=O)[O-])c1`, the z-score was -0.239.
As for `CCC1(C(=O)c2ccccc2)C(c2cccc([N+](=O)[O-])c2)C1(C(=O)OC)C(=O)OC` (stereo unspecified), the figure is -0.189; as for `CNC(=O)c1sccc1S(=O)(=O)Cc1c(Cl)cccc1Cl`, 0.11; as for `O=C(Cn1nc(-c2ccc(Cl)cc2)ccc1=O)NCc1ccc2c(c1)OCO2`, 1.01.
For `S=c1[nH]nc(-c2ccncc2)n1Cc1ccco1` the value was -0.198.
For `COc1cc(/C=N\NC(=O)CNC(=O)c2cccc([N+](=O)[O-])c2)ccc1O`, the z-score came out at 0.227.
Regarding `O=C1N=C(N2CCOCC2)S/C1=C\C=C/c1ccccc1`, the z-score is -0.0848.
In the case of `O=C(c1ccccc1F)N(Cc1ccc2c(c1)OCO2)Cc1cc2cc3c(cc2n2nnnc12)OCO3`, the z-score is -0.927.
As for `O=C(Cn1cnc2c(nnn2Cc2ccccc2F)c1=O)NCc1ccco1`, the figure is 0.156; as for `COc1ccc(C(=O)OCC(=O)Nc2ccc(F)c(F)c2F)cc1OC`, -0.106.
Regarding `O=C(NCC(=O)N1CCCC1C(=O)O)OC1CCCCC1` (stereo unspecified), the z-score was determined as 0.537.
`O=C1NCCCc2nonc21`: the z-score was -0.16.
For `O=C(CN1CCN(CCN2C(=O)c3cccc4cccc(c34)C2=O)CC1)c1ccc(Cl)cc1` the value was -0.0452; for `COCCCNC(=O)CSC1=Nc2ccccc2C2=NC(CC(=O)NCc3ccccc3)C(=O)N12` (stereo unspecified), 0.912; for `Cc1cc(/C=C(/C#N)C(=O)Nc2ccc(Cl)cc2)c(C)n1-c1cccnc1`, -0.136.
As for `CCc1c(C)nc2cc(-c3ccc(OC)c(OC)c3)nn2c1N1CCC(C)CC1`, the z-score is -0.784.
As for `COCC(C)n1c(SCC(=O)NCCC2=CCCCC2)nc2ccccc2c1=O` (stereo unspecified), the figure is -0.372; as for `CCOC(=O)c1cnc(SCC(=O)N2CCN(C(=O)c3ccco3)CC2)nc1N`, -0.0653.
For `Cc1ccsc1C(=O)Nc1ccc(F)c([N+](=O)[O-])c1` the value was 0.237.
`CC1=C(C)CC2C(=O)N(Cc3ccccc3)C(=O)C2C1` (stereo unspecified) showed a z-score of -0.0316.
As for `Cc1ccc(NC(=O)/C=C/c2cccs2)c([N+](=O)[O-])c1`, the figure is -0.147.
